# From the supplement of paper PMC8728848
# Some of the results follow.
# B1: FliD (Clostridium difficile) (protein)
# chain: MSSISPVRVTGLSGNFDMEGIIEASMIRDKEKVNKAKQDQQIVKWKQEIYRDIIKESKNLYDKYLNGDSPNSITNKKAYSATRITSSDESIIVAKGSAGAEKINYQFAVSQMAEPAKVTIKLNSSDPIVQQFPPNASGASSLNIGGVNIPISEQDTTSTIVSKINSLCADNDIRASYSEMTGELIISRKQTGSSSDIDLKVIGNDSLAGQIASDNGITFTTDASGTKSAVVYGKNLEADVTDDQGRVTHISKEQNSFKIDNIDYNVNSKGSAKLVSVTDTEEATKNMKAFVDDYNALMDKVYGLVTTKKSKDYPPLTDEQKDDMTTEEIEKWEKKAKEGILRNDDELRAFVEDIQSMFFGDADTIIALRKLGISEHENYNKKGQISFNADTFSKALIDDSDKVYKALAGYSSNYDDKGMFEKLKKIVFEYSGSSASKLTKKAGMENSSSASQNVYSKQIAEQERNISRLVEKMNDKEKRLYAKYSALESLLNKYSSQMNYFSQAQGN
# What was measured:
# Assay in all cases: glycan array binding signal (z-score within array); higher = stronger binding
# Details in all cases: glycan notation: IUPAC condensed, linker removed
# [1] = target: Gal(b1-4)GlcNAc(b1-3)Gal(b1-4)GlcNAc(b1-2)[Gal(b1-4)GlcNAc(b1-3)Gal(b1-4)GlcNAc(b1-6)]Man(a1-6)[Gal(b1-4)GlcNAc(b1-3)Gal(b1-4)GlcNAc(b1-2)Man(a1-3)]Man(b1-4)GlcNAc(b1-4)[Fuc(a1-6)]GlcNAc
# Summary of the method: (§1)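 From the Consortium for Functional Glycomics database, 3228 arrays were curated, keeping only those whose protein sequence was available. Binding is given as a within-array Z-score averaged across arrays sharing a protein sequence and across linkers. Negative Z-scores can be read as non-binding.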
# [2] = target: Gal(b1-4)GlcNAc(b1-3)Gal(b1-4)GlcNAc(b1-3)Gal(b1-4)GlcNAc
# Summary of the method: as §1
# [3] = target: Gal(b1-4)GlcNAc(b1-3)Gal(b1-4)GlcNAc(b1-3)Gal(b1-4)GlcNAc(b1-2)Man(a1-3)[Gal(b1-4)GlcNAc(b1-3)Gal(b1-4)GlcNAc(b1-3)Gal(b1-4)GlcNAc(b1-2)Man(a1-6)]Man(b1-4)GlcNAc(b1-4)GlcNAc
# Summary of the method: as §1
# [4] = target: Gal(b1-4)GlcNAc(b1-3)Gal(b1-4)GlcNAc(b1-3)Gal(b1-4)GlcNAc(b1-2)Man(a1-3)[Gal(b1-4)GlcNAc(b1-3)Gal(b1-4)GlcNAc(b1-3)Gal(b1-4)GlcNAc(b1-2)Man(a1-6)]Man(b1-4)GlcNAc(b1-4)[Fuc(a1-6)]GlcNAc
# Summary of the method: as §1
# [5] = target: Gal(b1-4)GlcNAc(b1-3)Gal(b1-4)GlcNAc(b1-3)Gal(b1-4)GlcNAc(b1-2)[Gal(b1-4)GlcNAc(b1-3)Gal(b1-4)GlcNAc(b1-3)Gal(b1-4)GlcNAc(b1-6)]Man(a1-6)[Gal(b1-4)GlcNAc(b1-3)Gal(b1-4)GlcNAc(b1-3)Gal(b1-4)GlcNAc(b1-2)Man(a1-3)]Man(b1-4)GlcNAc(b1-4)[Fuc(a1-6)]GlcNAc
# Summary of the method: as §1
# [6] = target: Gal(b1-4)GlcNAc(b1-3)Gal(b1-4)GlcNAc(b1-3)Gal(b1-4)GlcNAc(b1-3)Gal(b1-4)GlcNAc(b1-2)Man(a1-3)[Gal(b1-4)GlcNAc(b1-3)Gal(b1-4)GlcNAc(b1-3)Gal(b1-4)GlcNAc(b1-3)Gal(b1-4)GlcNAc(b1-2)Man(a1-6)]Man(b1-4)GlcNAc(b1-4)GlcNAc
# Summary of the method: as §1
# [7] = target: Gal(b1-4)GlcNAc(b1-3)Gal(b1-4)GlcNAc(b1-3)Gal(b1-4)GlcNAc(b1-3)Gal(b1-4)GlcNAc(b1-2)Man(a1-3)[Gal(b1-4)GlcNAc(b1-3)Gal(b1-4)GlcNAc(b1-3)Gal(b1-4)GlcNAc(b1-3)Gal(b1-4)GlcNAc(b1-2)Man(a1-6)]Man(b1-4)GlcNAc(b1-4)[Fuc(a1-6)]GlcNAc
# Summary of the method: as §1
# [8] = target: Gal(b1-4)GlcNAc(b1-3)Gal(b1-4)GlcNAc(b1-3)Gal(b1-4)GlcNAc(b1-3)Gal(b1-4)GlcNAc(b1-2)[Gal(b1-4)GlcNAc(b1-3)Gal(b1-4)GlcNAc(b1-3)Gal(b1-4)GlcNAc(b1-3)Gal(b1-4)GlcNAc(b1-6)]Man(a1-6)[Gal(b1-4)GlcNAc(b1-3)Gal(b1-4)GlcNAc(b1-3)Gal(b1-4)GlcNAc(b1-3)Gal(b1-4)GlcNAc(b1-2)Man(a1-3)]Man(b1-4)GlcNAc(b1-4)[Fuc(a1-6)]GlcNAc
# Summary of the method: as §1
# [9] = target: Gal(b1-4)GlcNAc(b1-3)Gal(b1-4)GlcNAc(b1-3)Gal(b1-4)GlcNAc(b1-3)Gal(b1-4)GlcNAc(b1-3)Gal(b1-4)GlcNAc(b1-2)Man(a1-3)[Gal(b1-4)GlcNAc(b1-3)Gal(b1-4)GlcNAc(b1-3)Gal(b1-4)GlcNAc(b1-3)Gal(b1-4)GlcNAc(b1-3)Gal(b1-4)GlcNAc(b1-2)Man(a1-6)]Man(b1-4)GlcNAc(b1-4)GlcNAc
# Summary of the method: as §1
# [10] = target: Gal(b1-4)GlcNAc(b1-3)Gal(b1-4)GlcNAc(b1-3)Gal(b1-4)GlcNAc(b1-3)Gal(b1-4)GlcNAc(b1-3)Gal(b1-4)GlcNAc(b1-2)Man(a1-3)[Gal(b1-4)GlcNAc(b1-3)Gal(b1-4)GlcNAc(b1-3)Gal(b1-4)GlcNAc(b1-3)Gal(b1-4)GlcNAc(b1-3)Gal(b1-4)GlcNAc(b1-2)Man(a1-6)]Man(b1-4)GlcNAc(b1-4)[Fuc(a1-6)]GlcNAc
# Summary of the method: as §1
# [11] = target: Gal(b1-4)GlcNAc(b1-3)Gal(b1-4)GlcNAc(b1-3)Gal(b1-4)GlcNAc(b1-3)Gal(b1-4)GlcNAc(b1-3)Gal(b1-4)GlcNAc(b1-2)[Gal(b1-4)GlcNAc(b1-3)Gal(b1-4)GlcNAc(b1-3)Gal(b1-4)GlcNAc(b1-3)Gal(b1-4)GlcNAc(b1-3)Gal(b1-4)GlcNAc(b1-6)]Man(a1-6)[Gal(b1-4)GlcNAc(b1-3)Gal(b1-4)GlcNAc(b1-3)Gal(b1-4)GlcNAc(b1-3)Gal(b1-4)GlcNAc(b1-3)Gal(b1-4)GlcNAc(b1-2)Man(a1-3)]Man(b1-4)GlcNAc(b1-4)[Fuc(a1-6)]GlcNAc
# Summary of the method: as §1
# [12] = target: Gal(b1-4)GlcNAc(b1-3)Gal(b1-4)GlcNAc(b1-3)Gal(b1-4)GlcNAc(b1-3)Gal(b1-4)GlcNAc(b1-3)Gal(b1-4)GlcNAc(b1-3)Gal(b1-4)GlcNAc(b1-2)Man(a1-3)[Gal(b1-4)GlcNAc(b1-3)Gal(b1-4)GlcNAc(b1-3)Gal(b1-4)GlcNAc(b1-3)Gal(b1-4)GlcNAc(b1-3)Gal(b1-4)GlcNAc(b1-3)Gal(b1-4)GlcNAc(b1-2)Man(a1-6)]Man(b1-4)GlcNAc(b1-4)GlcNAc
# Summary of the method: as §1
# [13] = target: Gal(b1-4)GlcNAc(b1-3)Gal(b1-4)GlcNAc(b1-3)GalNAc
# Summary of the method: as §1
# [14] = target: Gal(b1-4)GlcNAc(b1-3)Gal(b1-4)GlcNAc(b1-3)[Gal(b1-4)GlcNAc(b1-3)Gal(b1-4)GlcNAc(b1-6)]GalNAc
# Summary of the method: as §1
# [15] = target: Gal(b1-4)GlcNAc(b1-3)Gal(b1-4)GlcNAc(b1-6)[Gal(b1-3)]GalNAc
# Summary of the method: as §1
# [16] = target: Gal(b1-4)GlcNAc(b1-3)Gal(b1-4)[Fuc(a1-3)]GlcNAc(b1-3)Gal(b1-4)[Fuc(a1-3)]GlcNAc
# Summary of the method: as §1
# [17] = target: Gal(b1-4)GlcNAc(b1-3)GalNAc
# Summary of the method: as §1
# [18] = target: Gal(b1-4)GlcNAc(b1-3)[Fuc(a1-3)GlcNAc(b1-6)]Gal(b1-4)Glc
# Summary of the method: as §1
# [19] = target: Gal(b1-4)GlcNAc(b1-3)[Gal(b1-4)GlcNAc(b1-6)]Gal(b1-4)GlcNAc
# Summary of the method: as §1
# [20] = target: Gal(b1-4)GlcNAc(b1-3)[GlcNAc(b1-6)]Gal(b1-4)GlcNAc
# Summary of the method: as §1
# [21] = target: Gal(b1-4)GlcNAc(b1-6)Gal(b1-4)GlcNAc
# Summary of the method: as §1
# [22] = target: Gal(b1-4)GlcNAc(b1-6)GalNAc
# Summary of the method: as §1
# [23] = target: Gal(b1-4)GlcNAc(b1-6)[Gal(b1-3)]GalNAc
# Summary of the method: as §1
# [24] = target: Gal(b1-4)GlcNAc(b1-6)[Gal(b1-4)GlcNAc(b1-3)]GalNAc
# Summary of the method: as §1
# Gal(b1-4)GlcNAc6P = target: Gal(b1-4)GlcNAc6P
# Summary of the method: as §1
# Gal(b1-6)Gal = target: Gal(b1-6)Gal
# Summary of the method: as §1
# Gal3S(b1-3)GalNAc = target: Gal3S(b1-3)GalNAc
# Summary of the method: as §1
# Gal3S(b1-3)GlcNAc = target: Gal3S(b1-3)GlcNAc
# Summary of the method: as §1
# [25] = target: Gal3S(b1-3)[Fuc(a1-4)]GlcNAc
# Summary of the method: as §1
# Gal3S(b1-4)Glc = target: Gal3S(b1-4)Glc
# Summary of the method: as §1
# Gal3S(b1-4)Glc6S = target: Gal3S(b1-4)Glc6S
# Summary of the method: as §1
# Gal3S(b1-4)GlcNAc = target: Gal3S(b1-4)GlcNAc
# Summary of the method: as §1
# [26] = target: Gal3S(b1-4)[Fuc(a1-3)]Glc6S
# Summary of the method: as §1
# [27] = target: Gal3S(b1-4)[Fuc(a1-3)]GlcNAc
# Summary of the method: as §1
# [28] = target: Gal3S(b1-4)[Fuc(a1-3)]GlcNAc6S
# Summary of the method: as §1
# Gal3S4S(b1-4)GlcNAc = target: Gal3S4S(b1-4)GlcNAc
# Summary of the method: as §1
# Gal3S6S(b1-4)GlcNAc = target: Gal3S6S(b1-4)GlcNAc
# Summary of the method: as §1
binder,measurement,setting,value
B1,glycan array binding signal (z-score),[1],-0.119
same,glycan array binding signal (z-score),[2],-0.169
same,glycan array binding signal (z-score),[3],-0.102
same,glycan array binding signal (z-score),[4],0.119
same,glycan array binding signal (z-score),[5],-0.102
same,glycan array binding signal (z-score),[6],0.305
same,glycan array binding signal (z-score),[7],1.2
same,glycan array binding signal (z-score),[8],-0.166
same,glycan array binding signal (z-score),[9],-0.072
same,glycan array binding signal (z-score),[10],-0.064
same,glycan array binding signal (z-score),[11],0.4
same,glycan array binding signal (z-score),[12],-0.104
same,glycan array binding signal (z-score),[13],0.126
same,glycan array binding signal (z-score),[14],0.086
same,glycan array binding signal (z-score),[15],0.051
same,glycan array binding signal (z-score),[16],-0.166
same,glycan array binding signal (z-score),[17],-0.215
same,glycan array binding signal (z-score),[18],-0.184
same,glycan array binding signal (z-score),[19],0.414
same,glycan array binding signal (z-score),[20],0.021
same,glycan array binding signal (z-score),[21],-0.155
same,glycan array binding signal (z-score),[22],-0.184
same,glycan array binding signal (z-score),[23],-0.18
same,glycan array binding signal (z-score),[24],-0.169
same,glycan array binding signal (z-score),Gal(b1-4)GlcNAc6P,-0.155
same,glycan array binding signal (z-score),Gal(b1-6)Gal,-0.166
same,glycan array binding signal (z-score),Gal3S(b1-3)GalNAc,0.678
same,glycan array binding signal (z-score),Gal3S(b1-3)GlcNAc,0.039
same,glycan array binding signal (z-score),[25],-0.212
same,glycan array binding signal (z-score),Gal3S(b1-4)Glc,3.41
same,glycan array binding signal (z-score),Gal3S(b1-4)Glc6S,1.24
same,glycan array binding signal (z-score),Gal3S(b1-4)GlcNAc,0.108
same,glycan array binding signal (z-score),[26],-0.185
same,glycan array binding signal (z-score),[27],-0.139
same,glycan array binding signal (z-score),[28],0.916
same,glycan array binding signal (z-score),Gal3S4S(b1-4)GlcNAc,-0.16
same,glycan array binding signal (z-score),Gal3S6S(b1-4)GlcNAc,-0.201
